Assay results taken from the RNAGym collection of RNA variant scans (doi:10.7554/elife.90254).
The source gives no read counts; variants with many changes may rest on few reads.

B1: LINE1-mini (parent)
chain: GGCAGAGCUCAACACAGCGUGGCAAAGUGGCUGUGGCUAGACUGCC

Variants of: B1
Assay: self-cleavage, relative activity (ratio to wild type); higher = more cleavage; in vitro, sequencing; the parent is a self-cleaving ribozyme

Row | Variant | self-cleavage
1 | GGCAGAGCUCAAUACACCGUGGCAUAGUGGCUGUGGCUAGACAGCC [C13U G17C A25U U43A] | 0.13
2 | GGCAGAGCUCAAUACAGCGUGACUAAGUGGCUGUGGCUAGACUGCC [C13U G22A A24U] | 0.14
3 | GGCAGAGCUCAAUACAGCGUGACCAAGUGGCUGUGGCUAGACUGCC [C13U G22A A24C] | 0.17
4 | GGCAGAGCUCAAUACAACGUGGCAAAGUGGCUGUGUCUAGACUGCC [C13U G17A G36U] | 0.03
5 | GGCAGAGCUCAAUACAACGUGGCACAGUGGCUGUGGCUACACUGCC [C13U G17A A25C G40C] | 0.04
6 | GGCAGAGCUCAAUACAGUGUGGCAAAGUGGCUAUGGCUAGACUGUC [C13U C18U G33A C45U] | 0.04
7 | GGCAGAGCUCAAUACAGCGUGGCAAAGUGGUUGUGGCUAGAGUACC [C13U C31U C42G G44A] | 0.02
8 | GGCAGAGCUCAAUACACCGUGGCAAUGUUGCUGUGGCUGGACUGCC [C13U G17C A26U G29U A39G] | 0.3
9 | GGCAGAGCUCAAUACAGCGUGGGAAAGUGGCUGUGGCUAGGCUGCC [C13U C23G A41G] | 0.03
10 | GGCAGAGCUCAAUACAGCGUGGCAAAGUGGCUGUGGUUAGGCUGCC [C13U C37U A41G] | 0.06
11 | GGCAGAGCUCAAUACAGAGUGGCAAAGUGUCUGUGGCUAGACUGCC [C13U C18A G30U] | 0.17
12 | GGCAGAGCUCAAUACAACCUGGCAAAGUGGCCGUGGCUAGACUGCC [C13U G17A G19C U32C] | 0.14
13 | GGCAGAGCUCAAUACAGCGUUGCAAAGUGGCUGUGGCUACACUUCC [C13U G21U G40C G44U] | 0.06
14 | GGCAGAGCUCAAUACAGCGUGGCAAAGUGGCUGUGGGUAGACUUCC [C13U C37G G44U] | 0.06
15 | GGCAGAGCUCAAUACAGGGUGGCAAAGUGGCGGUGGCUAGACUGCC [C13U C18G U32G] | 0.03
16 | GGCAGAGCUCAAUACAGUGUGGCAAAGUGCCUGUCGCUAGACUGUC [C13U C18U G30C G35C C45U] | 0.11
17 | GGCAGAGCUCAAUACAGAGUGGCAAAGUGGCUGUGGCUAUACUGCC [C13U C18A G40U] | 0.04
18 | GGCAGAGCUCAAUACAGUGCGGCAUAGUGGCUGUGGCUAGACUGCC [C13U C18U U20C A25U] | 0.4
19 | GGCAGAGCUCAAUACAGCGUGGCAAAGUGGCUGUGGCUAGAUCGCC [C13U C42U U43C] | 0.08

Row | Variant | self-cleavage
20 | GGCAGAGCUCAAUACAGCGUGCCACAGUGGCUUUGGCUAGACUGCC [C13U G22C A25C G33U] | 0.03
21 | GGCAGAGCUCAAUACAGCGUGGCAAAGUGGGUGUGUCUAGACUGCA [C13U C31G G36U C46A] | 0.23
22 | GGCAGAGCUCAAUACAGCGUGGCAAAGUGGGUGUGGCCAGACUGCC [C13U C31G U38C] | 0.02
23 | GGCAGAGCUCAAUACAGCGUGGCAAAGUGGGUGUGGCAAGACUGCC [C13U C31G U38A] | 0.03
24 | GGCAGAGCUCAAUACAGCGUAGCAAAGUGGCUGUGGCUAGACUUCC [C13U G21A G44U] | 0.4
25 | GGCAGAGCUCAAUACAGCGUGGCAAAAUGGCUGUGGGUAGACUGCG [C13U G27A C37G C46G] | 0.02
26 | GGCAGAGCUCAAUACAGCGUUGCCAAGUGGCUGUGCCUAGACUGCA [C13U G21U A24C G36C C46A] | 0.05
27 | GGCAGAGCUCAAUACAGCGUGGCAAAAUGGCUCUGGCUAGACUGUC [C13U G27A G33C C45U] | 0.04
28 | GGCAGAGCUCAAUACAGCGUGGAAAAGUGGCUGUGGCUAGAAUGCU [C13U C23A C42A C46U] | 0.24
29 | GGCAGAGCUCAAUACAGCGUGCCAAAGUGGCUGUGGCUUGACUGCC [C13U G22C A39U] | 0.09
30 | GGCAGAGCUCAAUACAGCGUGGUAAAGUGUCUGUGGCUAGACUGAC [C13U C23U G30U C45A] | 0.02
31 | GGCAGAGCUCAAUACAGCGUUGCAAACUGGCUGUGACUAGACUGCC [C13U G21U G27C G36A] | 0.29
32 | GGCAGAGCUCAAUACAGCGUGGCAAAGUGGCUGUGGAUAGACUACC [C13U C37A G44A] | 0.02
33 | GGCAGAGCUCAAUACAGAGUGGCAAAGUGGCUUUGGCUAGACUGAC [C13U C18A G33U C45A] | 0.01
34 | GGCAGAGCUCAAUACAGCGUGGUAAAGUUACUGUGGCUUGACUGCC [C13U C23U G29U G30A A39U] | 0.05
35 | GGCAGAGCUCAAUACACCGUGGCAAAGAGGCUGUGGCUAGAGUGCC [C13U G17C U28A C42G] | 0.02
36 | GGCAGAGCUCAAUACAUCGUGGCGAAGUGGCUGUGGCUAGACUGAC [C13U G17U A24G C45A] | 0.01
37 | GGCAGAGCUCAAUACAGCGUGGCAAAUUGGAUGUGGCUAGACAGCC [C13U G27U C31A U43A] | 0.08
38 | GGCAGAGCUCAAUACAGUUUGGCCAAGUGGCUGUGGCUAGACUGCC [C13U C18U G19U A24C] | 0.05

Row | Variant | self-cleavage
39 | GGCAGAGCUCAAUACAGCAUGGCCAAGUGGUUGUGGCUAGACUGCC [C13U G19A A24C C31U] | 0.01
40 | GGCAGAGCUCAAUACAGAGUGGCAAAGUGACUGUGGGUAUACUGUC [C13U C18A G30A C37G G40U C45U] | 0.19
41 | GGCAGAGCUCAAUACAGCGUGGAAAAGUGGCUGUGUCUAAACUGCG [C13U C23A G36U G40A C46G] | 0.17
42 | GGCAGAGCUCAAUACAUGGUGGCAAAGUGGCUGUGGCUAGACUGCC [C13U G17U C18G] | 0.07
43 | GGCAGAGCUCAAUACAGCGUGGUAAAGUGGCUGUGGCUAGAUUGCA [C13U C23U C42U C46A] | 0.01
44 | GGCAGAGCUCAAUACAACGUGGCAAAGUGGCUGUGGCUAGCCUACC [C13U G17A A41C G44A] | 0.04
45 | GGCAGAGCUCAAUACACCGUGGCAAAGUGGCUGUGGCUUGACUGCC [C13U G17C A39U] | 0.12
46 | GGCAGAGCUCAAUACAUCGUGGCAACGUGGCUGUGGCUAGAUUGCC [C13U G17U A26C C42U] | 0
47 | GGCAGAGCUCAAUACAGCGUGGCAAACUGGCUGUGGCUAAACUGCC [C13U G27C G40A] | 0.11
48 | GGCAGAGCUCAAUACAACGUGGCAAAGUGUCUGUGGCUAGACUGCC [C13U G17A G30U] | 0.03
49 | GGCAGAGCUCAAUACAGCGUCGCAAAGUGGCUCUGGCUAGACUGCC [C13U G21C G33C] | 0.01
50 | GGCAGAGCUCAAUACAGCGUGGCAAAGUGGAUGUGUCUAGACUGCC [C13U C31A G36U] | 0.08
51 | GGCAGAGCUCAAUACAGUGUGGCAAAGUGGCUGUGGUUAGACUGUC [C13U C18U C37U C45U] | 0.05
52 | GGCAGAGCUCAAUACAGCGUCGCAAAGUGGCUGUGGCUAGACUGUC [C13U G21C C45U] | 0.08
53 | GGCAGAGCUCAAUACAGCGUGGCAAAUUGGCUGUGGCUAGGCUGCC [C13U G27U A41G] | 0.04
54 | GGCAGAGCUCAAUACAGCGUGGCAAAGUGGCUGUGGAUAGACAGCC [C13U C37A U43A] | 0.06
55 | GGCAGAGCUCAAUACAUCGUGGAAAAGUGGCCGUGGCUAGACUGCC [C13U G17U C23A U32C] | 0.05
56 | GGCAGAGCUCAAUACAACGCGGCAAAGUGGCUGUGGCUAGACUGCG [C13U G17A U20C C46G] | 0.01
